In PubChem BioAssay AID360 (National Center for Advancing Translational Sciences (NCATS), 2006):
In all, about 48,000 compounds went through this assay and about 550 (1.1%) were called active. About 4% were inconclusive and are not listed. No stated cut-off is given here; in the data, active means potency below about 15 µM; inconclusive means mostly about 16 µM to 33 µM; inactive means weaker than that. Some of the results follow.

What follows are compounds tested against Lysosomal acid glucosylceramidase (Homo sapiens) (UniProt P04062) (assay: Glucocerebrosidase). Conditions: purified enzyme, resorufin glucoside fluorescence (screen aimed at inhibitors), 20 min.
UniProt P04062, sequence (P04062 whole entry, looked up): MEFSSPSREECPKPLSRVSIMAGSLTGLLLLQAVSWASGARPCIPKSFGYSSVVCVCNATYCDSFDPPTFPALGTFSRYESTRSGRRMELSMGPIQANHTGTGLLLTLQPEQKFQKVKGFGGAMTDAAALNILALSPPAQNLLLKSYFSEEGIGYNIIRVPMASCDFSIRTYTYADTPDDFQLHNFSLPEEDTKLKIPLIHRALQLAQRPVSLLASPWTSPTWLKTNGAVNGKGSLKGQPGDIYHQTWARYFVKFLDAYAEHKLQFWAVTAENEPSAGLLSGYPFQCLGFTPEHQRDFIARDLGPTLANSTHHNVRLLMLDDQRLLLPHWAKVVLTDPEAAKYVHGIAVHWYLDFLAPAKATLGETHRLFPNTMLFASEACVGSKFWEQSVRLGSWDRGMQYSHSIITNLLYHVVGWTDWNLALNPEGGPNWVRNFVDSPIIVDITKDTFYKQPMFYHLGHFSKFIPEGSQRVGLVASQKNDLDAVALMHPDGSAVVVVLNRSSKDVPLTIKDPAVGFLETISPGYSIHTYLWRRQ
Outline: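 Normal human glucocerebrosidase (0.2 nM final) was assayed with resorufin β-D-glucopyranoside (30 uM final) in 50mM citric acid/KH2PO4, 10mM sodium taurocholate, 0.01% tween-20, pH 5.9. Compounds were titrated; fluorescence (Ex 548, Em 600) read after 20 min at RT.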
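Further: the screen sought inhibitors.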
Potency means the concentration at half of the fitted maximal effect.

Potency, inactive:
COc1ccccc1-n1c(SCC(=O)Nc2ccccc2F)nc2[nH]ncc2c1=O > 76.9 µM, CCC(=O)N1CCc2cc(S(=O)(=O)CCC(=O)O)ccc21 > 76.9 µM, CC(C)(C)c1ccc(-c2nnc3sc(-c4ccncc4)nn23)cc1 > 76.9 µM, O=S(=O)(c1ccc(-c2csc(-c3cccnc3)n2)cc1)N1CCCCC1 > 76.9 µM, Nn1c(SCC(=O)NC2CCCc3ccccc32)nnc1-c1cccs1 (centres undefined) > 76.9 µM, COC(=O)c1onc(C(=O)c2ccccc2)c1C(=O)OC > 76.9 µM, CCn1c(SCC(=O)c2ccc3c(c2)OCCO3)nnc1C(C)C > 76.9 µM, Cc1cc(C)c(C)c(OCC(=O)NCC2CCCO2)c1 (centres undefined) > 76.9 µM, Cn1c(=O)[nH]c(=O)c2c1nc(Br)n2Cc1ccccc1F > 76.9 µM, CN(C)C(=O)c1ccc(COc2ccccc2Br)o1 > 76.9 µM, CCN=c1scc(C)n1/N=C/c1ccsc1 > 76.9 µM, COCc1cc(C)nc(SCC(=O)Nc2ccc3c(c2)OCO3)c1C#N, CCOC(=O)N1CCC(NC(=O)C2CCN(c3nc(-c4ccc(OC)cc4)no3)CC2)CC1 > 76.9 µM, Cc1ccc2nc(SCC(=O)O)nc(C)c2c1 > 76.9 µM, CCN1C(=O)C(O)(CC(=O)c2ccc(-n3cccc3)cc2)c2ccccc21 (centres undefined) > 76.9 µM, COc1ccc(Br)cc1CNC(=O)C1CCCN(S(C)(=O)=O)C1 (centres undefined) > 76.9 µM, CCOc1ccc(OCC)c(NC(=O)C2COc3ccccc3O2)c1 (centres undefined) > 76.9 µM, CCOC(=O)c1ccc(NC(=O)CC2Sc3ncnn3C2=O)cc1 (centres undefined) > 76.9 µM, CCC(C)NC(=O)Cn1cnc2sc(C)cc2c1=O (centres undefined) > 76.9 µM, COCCNC(=O)CCc1nc(-c2ccccc2)no1 > 76.9 µM, COc1ccc(-c2c(C#N)c(N)nc3c2CCCC3)cc1OC > 76.9 µM, COc1cc2c(cc1OC)C1(NCC2)C(=O)Nc2ccccc21 (centres undefined) > 76.9 µM, CCN(CC)CCNS(=O)(=O)c1ccc(Cl)cc1 > 76.9 µM, Cc1cc(C)nc(N2CCCC(C(=O)NCc3cccs3)C2)n1 (centres undefined) > 76.9 µM, O=C1CSC(c2cccnc2)N1C1CCCCC1 (centres undefined) > 76.9 µM, CN(C(=O)c1ccc(Cl)cc1)C1=CCCCC1CCC#N (centres undefined) > 76.9 µM, CC(C)(C)NC(=O)COC(=O)c1ccc(O)cc1 > 76.9 µM, O=C(CSc1nnc(-c2ccccc2Br)o1)N1CCc2ccccc2C1 > 76.9 µM, CN(C)/C=C1\C=C(c2ccccc2)OC1=O > 76.9 µM, CCC(NC(=O)c1ccccc1O)c1ccccc1 (centres undefined) > 76.9 µM, COc1ccc(CCNC(=O)CSc2nnc(-c3cccc(F)c3)o2)cc1OC > 76.9 µM, CCn1c(CN2CCN(C(=O)c3ccco3)CC2)nc2c1c(=O)n(C)c(=O)n2C > 76.9 µM, CCCn1nnnc1SCC(=O)NCc1cccs1 > 76.9 µM, Cc1cc(C)c(S(=O)(=O)N(C)CC(=O)N2CCCCC2)c(C)c1 > 76.9 µM, Cn1c(=O)n(C)c2cc(C(=O)Nc3ccc4c(c3)OCO4)ccc21 > 76.9 µM, CCS(=O)(=O)NC(C)C(c1cccs1)N1CCN(C)CC1 (centres undefined) > 76.9 µM, C=CCn1c(=O)c2ccccc2n2c(SCc3nnc(-c4ccccc4Br)o3)nnc12 > 76.9 µM, Cc1ccc(Nc2nc(=O)c3cccnc3s2)cc1 > 76.9 µM, CCOc1ccc(S(=O)(=O)N(C)c2ccc(OCC(=O)OCc3c(C)noc3C)cc2)cc1 > 76.9 µM, CCCS(=O)(=O)N1CCC(C(=O)NCCN(CC)c2ccccc2)CC1 > 76.9 µM, Cc1c(C(=O)Nc2ccc(C(=O)O)cc2)cnn1C > 76.9 µM, CC(=O)N1CCc2cc(S(=O)(=O)NCCC(=O)NC3CCCc4ccccc43)ccc21 (centres undefined) > 76.9 µM, COc1cc(NS(=O)(=O)c2ccc(NC(C)=O)cc2)cc(OC)c1 > 76.9 µM, O=c1nc(-c2ccccc2)c2ccccc2[nH]1 > 76.9 µM, c1coc(CNc2nc3sc4c(c3c3ncnn23)CCCC4)c1 > 76.9 µM, CCN(CCNC(=O)C1CCCN(S(=O)(=O)CC)C1)c1ccccc1 (centres undefined) > 76.9 µM, Cc1ccc(-c2csc3ncn(-n4c(C)ccc4C)c(=O)c23)o1 > 76.9 µM, Cc1ccc(C2(C)NC(=O)N(CC(=O)Nc3ccc4c(c3)OCO4)C2=O)cc1 (centres undefined) > 76.9 µM, Cc1nc(SCC(C)C)[nH]c(=O)c1Cc1ccccc1 > 76.9 µM, CC(c1ccco1)N(C(=O)c1cccs1)c1ccccn1 (centres undefined) > 76.9 µM, O=C(NC1CCCCC1)NC1CCN(CC(=O)N2CCOCC2)CC1 > 76.9 µM, CC(C)Oc1ccc(C2NC(=O)NC2=O)cc1 (centres undefined) > 76.9 µM, COc1cccc(NC(=O)COC(=O)c2cccnc2)c1 > 76.9 µM, Cc1ccc2nsnc2c1N(S(C)(=O)=O)S(C)(=O)=O > 76.9 µM, Cc1ccc(S(=O)(=O)Cc2cn3cccnc3n2)cc1 > 76.9 µM, CCOC(=O)c1c(C)oc(/N=C/c2ccccc2O)c1C#N > 76.9 µM, Cc1ccccc1Cn1c(=N)n(CC(O)c2ccco2)c2ccccc21 (centres undefined) > 76.9 µM, O=C(CC1NCCNC1=O)Nc1ccc(Oc2ccccc2)cc1 (centres undefined), CC(NS(=O)(=O)c1ccccc1)C(=O)Nc1ccc(S(N)(=O)=O)cc1 (centres undefined) > 76.9 µM, O=C(Nc1ccc(O)cc1C(=O)O)c1cccc(Br)c1 > 76.9 µM, CCOC(=O)C1=C(C)Nc2ncnn2C1c1ccc(N(C)C)cc1 (centres undefined) > 76.9 µM, Cc1cc(N2CCC(C(=O)NCC3CC3)CC2)nc(-c2ccccc2)n1, CCCCOc1cc(=O)[nH]c(=O)[nH]1 > 76.9 µM, COc1ccc(NC(=O)CSc2nnc(CNC(=O)c3ccco3)o2)c(OC)c1 > 76.9 µM, CCn1c(-c2ccco2)nc2ccccc21 > 76.9 µM, COc1cccc(CNC(=O)C(CCSC)NS(=O)(=O)c2ccc3c(c2)oc(=O)n3C)c1 (centres undefined) > 76.9 µM, CN1C(=O)N(C)C(NC(=O)Nc2ccccc2)C1NC(=O)Nc1ccccc1 (centres undefined) > 76.9 µM, c1ccc(CCc2nn3c(Cn4cnc5ccccc54)nnc3s2)cc1 > 76.9 µM, CC(C)C(c1nnnn1C1CCCC1)N(C)C1CCCCC1 (centres undefined) > 76.9 µM, O=C(CSc1nc2c(sc3ccccc32)c(=O)n1Cc1ccco1)NCC1CCCO1 (centres undefined) > 76.9 µM, C=CCNC(=O)c1ccc(OC)cc1OC > 76.9 µM, CCOC(=O)C1CCN(S(=O)(=O)c2cc(Cl)c(C)cc2OC)CC1 > 76.9 µM, O=C(NCc1ccncc1)c1ccc(Cl)c(S(=O)(=O)N2CCOCC2)c1 > 76.9 µM, COc1ccc(CC(=O)Nc2cccc(C(=O)O)c2C)cc1 > 76.9 µM, O=C(CSc1nnc(-c2ccc(Br)o2)n1Cc1ccccc1)c1ccccc1F > 76.9 µM, O=C(CSc1ccc2nnc(-c3ccccc3)n2n1)NCC1CCCO1 (centres undefined) > 76.9 µM, COc1ccc(S(=O)(=O)Nc2ccccc2C(=O)NCc2ccco2)cc1Br, CC(NC(=O)c1cncc(Br)c1)c1ccc(S(N)(=O)=O)cc1 (centres undefined) > 76.9 µM, CCc1nc(N[C@@H](Cc2c[nH]c3ccccc23)C(=O)O)c2oc3ccccc3c2n1 > 76.9 µM, Cc1ccc(-c2noc(CCC(=O)NCc3ccc4c(c3)OCO4)n2)cc1 > 76.9 µM, Cc1c(NS(=O)(=O)c2ccc3c(c2)CCN3C(=O)C2CC2)c(=O)n(-c2ccccc2)n1C > 76.9 µM, CCCCCn1c(=O)[nH]c2cc(C(=O)NCCCN3CCCCC3)ccc2c1=O > 76.9 µM, Cc1ccc(C(CC(=O)c2ccco2)SCCO)cc1 (centres undefined) > 76.9 µM, Cn1c2c(c(=O)n(C)c1=O)CN(Cc1ccc3c(c1)OCO3)CN2 > 76.9 µM, COc1cccc(C(=O)n2cnnc2N)c1OC > 76.9 µM, Cc1c(C#N)c(SCC(N)=O)nc2c1CCCC2 > 76.9 µM, O=C(OCc1nnc(-c2ccccc2)o1)c1ccc2ccccc2n1 > 76.9 µM, CC1CCN(CCc2nc3cc(NS(=O)(=O)c4ccccc4)ccc3n2C)CC1 > 76.9 µM, O=C(Cn1cccc1C(=O)c1ccccc1)NCc1ccc2c(c1)OCO2 > 76.9 µM, Cc1ccc(-c2nc(C#N)c(NCCc3ccccn3)o2)cc1 > 76.9 µM, COc1ccccc1NC(=O)C1=C(C)Nc2nnnn2C1c1ccncc1 (centres undefined), Cc1cc(S(=O)(=O)N2CCCC2)ccc1OCC(=O)N1CCOCC1 > 76.9 µM, COc1ccc(-c2csc(/C(C#N)=C(\O)CSc3nccn3C)n2)cc1OC > 76.9 µM, N#C[C@@H]1[C@@H]2C(=O)N(c3ccc4c(c3)OCCO4)C(=O)[C@@H]2C2c3ccccc3C=CN21 (some centres undefined) > 76.9 µM
